{"source": "PubChem BioAssay AID1508642", "about": "(National Center for Advancing Translational Sciences (NCATS), 2021)", "note": "Among all 43,000 compounds or so, about 200 (0.47%) were called active. The shares of active, inactive and inconclusive entries below differ from those in the screen. Calls come from the whole dose curve; as a rule, active = well fitted cell-killing curve with a large enough effect; inconclusive = small, poorly fitted or top-dose-only effect, or effect the other way; inactive = flat fitted curve, though single readings scatter. Potencies of inconclusive entries are doubtful fits and often do not repeat. % is set by controls: 0 for no effect and ±100 for the full control effect; potency is the fitted concentration of half-maximal effect; tags give direction and shape of the fitted curve.", "data": [{"assay": "Cell viability qHTS assay in S16 Pmp22-F2sN cells; note: nearly all actives have a fitted effect of over 65% in size", "conditions": "S16 Pmp22-F2sN Schwann cells (luciferase reporters placed in the Pmp22 gene) viability, CellTiter-Glo, 24 h; activity change, negative = cytotoxicity: at 57.5 µM (top of the series)", "method_in_brief": "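Rat S16 Schwann reporter line, 24 h treatment with library compounds delivered at 23 nL per well. Cell viability by CellTiter-Glo luminescence.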", "values": [{"smiles": "CCc1cccc(NC(=O)c2c(N3CCCC3=O)c3cc(C)ccc3n2C)c1", "Potency": "inconclusive: 39.8 µM [cytotoxic, single point]"}, {"smiles": "CCc1ccccc1NC(=O)CSc1nnc(-c2ccccc2)c(-c2ccccc2)n1", "Potency": "inconclusive: 35.5 µM [cytotoxic, single point]"}, {"smiles": "CCC(C(=O)NC1CCCCC1)n1c(SCc2cccc(C)c2)nc2ccncc21", "note": "(stereo unspecified)", "activity change, negative = cytotoxicity": "inactive: -12.3%"}, {"smiles": "CCN1C(=O)c2ccccc2S(=O)(=O)c2ccc(C(=O)NCc3ccc(OC)cc3)cc21", "activity change, negative = cytotoxicity": "inactive: 3.32%"}, {"smiles": "Cc1cccc(N2CCN(c3ncnc4c3nc3n4CCCCC3)CC2C)c1", "note": "(stereo unspecified)", "Potency": "active: 8.91 µM"}, {"smiles": "COc1cccc(NC(=O)c2cc3c(-c4ccc(Cl)cc4)nn(C)c3s2)c1", "activity change, negative = cytotoxicity": "inactive: -18.1%"}, {"smiles": "CCOc1ccc(-c2cc(CCCC(=O)NCCc3cc(OC)c(OC)c(OC)c3)no2)cc1", "Potency": "inconclusive: 39.8 µM [cytotoxic, partial curve, poor fit]"}, {"smiles": "COC(=O)c1c(C)oc2ccc(N(C(=O)c3ccncc3)S(=O)(=O)c3cc(C)ccc3C)cc12", "Potency": "inconclusive: 20 µM [cytotoxic, single point]"}, {"smiles": "O=C(NCCN1CCCCC1)c1ccc(Cn2c(SCc3ccccc3)nc3cccnc32)cc1", "Potency": "inconclusive: 35.5 µM [cytotoxic, single point]"}, {"smiles": "CCOc1ccc(CNC(=O)c2cc(-c3ccc(Cl)s3)nc3ccccc23)cc1", "activity change, negative = cytotoxicity": "inactive: 8.53%"}, {"smiles": "Cc1ccc2c(CNCc3ccc(C)o3)c(C(=O)O)n(Cc3ccc(F)cc3)c2c1", "Potency": "inconclusive: 31.6 µM [cytotoxic, single point]"}, {"smiles": "Cc1ccc(NC(=O)C2CCN(c3nc(-c4ccc(C(C)C)cc4)no3)CC2)c(Cl)c1", "activity change, negative = cytotoxicity": "inactive: 1.26%"}, {"smiles": "O=C(NC1CCN(Cc2ccccc2)CC1)c1ccc(Cn2c(=O)c3ccccc3n(Cc3ccc(F)cc3)c2=O)cc1", "Potency": "inconclusive: 39.8 µM [cytotoxic, single point]"}, {"smiles": "COc1ccccc1NC(=O)c1cc2c(C)nn(-c3ccccc3)c2s1", "Potency": "inconclusive: 31.6 µM [cytotoxic, single point]"}, {"smiles": "CCOc1ccc(-c2oc3ccc(C)cc3c(=O)c2O)cc1", "activity change, negative = cytotoxicity": "inactive: -2.36%"}, {"smiles": "CCOC(=O)c1cnc2ccc(C)cc2c1Nc1ccc(N(CC)CC)cc1", "Potency": "inconclusive: 39.8 µM [cytotoxic, single point]"}, {"smiles": "COc1ccc2c(CNC3CCCCCC3)c(C(=O)O)n(Cc3ccccc3F)c2c1", "activity change, negative = cytotoxicity": "inactive: -4.31%"}, {"smiles": "CCOc1ccccc1Nc1sc(C(=O)c2ccccc2)c(N)c1S(=O)(=O)c1ccc(C)cc1", "Potency": "inconclusive: 3.98 µM [cytotoxic, full curve, poor fit]"}, {"smiles": "COc1cc(OC)c(NC(=O)c2noc3c2CSc2ccccc2-3)cc1Cl", "activity change, negative = cytotoxicity": "inactive: 15.1%"}, {"smiles": "Cc1ccc(C)c(NC(=O)CSc2nnc(-c3cc4occc4n3C)n2-c2ccccc2C)c1", "Potency": "inconclusive: 39.8 µM [cytotoxic, single point]"}, {"smiles": "Cc1ccc(CNC(=O)CSc2ncc3c(n2)-c2ccc(Cl)cc2N(Cc2ccccc2)S3(=O)=O)cc1", "Potency": "inconclusive: 1.12 µM [cytotoxic, partial curve, poor fit]"}, {"smiles": "COc1cccc(C2C=C(c3ccccc3)Nc3c(C(=O)Nc4ccccc4)cnn32)c1OC", "note": "(stereo unspecified)", "Potency": "inconclusive: 28.2 µM [cytotoxic, single point]"}, {"smiles": "COc1ccc(-n2cc(-c3ccc4c(c3)OCO4)n(CC(=O)Nc3cccc(C)c3C)c2=O)c(OC)c1", "Potency": "inconclusive: 39.8 µM [cytotoxic, single point]"}, {"smiles": "COc1cc(OC)cc(C(=O)Nc2ccc(-c3nc4cc(C(C)C)ccc4o3)cc2)c1", "Potency": "inconclusive: 39.8 µM [cytotoxic, single point]"}, {"smiles": "O=c1c(S(=O)(=O)c2ccccc2)cn(Cc2ccc(F)cc2)c2cc(N3CCOCC3)c(F)cc12", "Potency": "inconclusive: 17.8 µM [cytotoxic, partial curve, poor fit]"}, {"smiles": "CCOC(=O)c1ccc(N2C(=O)c3n[nH]c(-c4cccs4)c3C2c2ccc(CC)cc2)cc1", "note": "(stereo unspecified)", "Potency": "inconclusive: 39.8 µM [cytotoxic, single point]"}, {"smiles": "CC(Sc1nc2c(c(=O)[nH]1)CCCC2)C(=O)Nc1cc(C(F)(F)F)ccc1Cl", "note": "(stereo unspecified)", "activity change, negative = cytotoxicity": "inactive: -2.83%"}, {"smiles": "CCOC(=O)c1ccc2nc(C)cc(Nc3ccc(OC(C)C)cc3)c2c1", "Potency": "inconclusive: 17.8 µM [cytotoxic, partial curve, poor fit]"}, {"smiles": "CCOC(=O)C1CCN(c2nc3c(S(=O)(=O)c4ccccc4)nnn3c3ccc(Cl)cc23)CC1", "Potency": "inconclusive: 39.8 µM [cytotoxic, partial curve, poor fit]"}, {"smiles": "O=C(c1ccccc1)N1CCCC(c2nc3c(nnn3Cc3ccc(F)cc3F)c(=O)[nH]2)C1", "note": "(stereo unspecified)", "Potency": "inconclusive: 5.01 µM [cytotoxic, single point]"}, {"smiles": "COC(=O)C1=C(C)NC(=O)NC1c1cn(-c2ccccc2)nc1-c1ccc(OC)c(Br)c1", "note": "(stereo unspecified)", "Potency": "inconclusive: 28.2 µM [cytotoxic, partial curve, poor fit]"}, {"smiles": "COc1cc(OC)cc(C(=O)Nc2ccc3nc4c(c(Nc5ccc(OC)c(OC)c5)c3c2)CCCC4)c1", "Potency": "inconclusive: 39.8 µM [cytotoxic, single point]"}, {"smiles": "CCCCc1ccc(Nc2cc(C)nc(-n3nc(C)cc3C)n2)cc1", "Potency": "inconclusive: 2 µM [cytotoxic, full curve]"}, {"smiles": "CCN1CCc2c(sc(NC(=O)c3ccc(S(=O)(=O)N(C)C4CCCCC4)cc3)c2C(N)=O)C1", "Potency": "inconclusive: 25.1 µM [cytotoxic, single point]"}, {"smiles": "Cc1ccc(CSCCC(=O)N2CCN(c3ccc(F)cc3)CC2)cc1", "activity change, negative = cytotoxicity": "inactive: 7.58%"}, {"smiles": "Cc1cccc(C)c1Nc1c(-c2ccc(N3CCOCC3)cc2)nc2ncccn12", "Potency": "inconclusive: 20 µM [cytotoxic, partial curve, poor fit]"}, {"smiles": "Cc1ccc(NC(=O)C2CCCN(c3ncnc4onc(C)c34)C2)c(Cl)c1", "note": "(stereo unspecified)", "Potency": "inconclusive: 5.62 µM [cytotoxic, full curve]"}, {"smiles": "COc1ccc(Cl)cc1NC(=O)Nc1c[nH]c(=O)[nH]c1=O", "activity change, negative = cytotoxicity": "inactive: 1.01%"}, {"smiles": "Cn1nnnc1SCCCNCc1cccc(OCc2ccccc2F)c1", "Potency": "inconclusive: 31.6 µM [cytotoxic, single point]"}, {"smiles": "O=C(Nc1c(C(=O)c2ccc(Cl)cc2)oc2ccccc12)c1cc(=O)c2ccccc2o1", "Potency": "inconclusive: 39.8 µM [rising, single point]"}, {"smiles": "Cc1ccn2c(Nc3ccccc3C)c(-c3ccc(N4CCOCC4)cc3)nc2c1", "activity change, negative = cytotoxicity": "inactive: -7.38%"}, {"smiles": "CCOc1ccc(NC(=O)CSc2oc(-c3cccs3)nc2S(=O)(=O)c2ccc(C)cc2)cc1", "activity change, negative = cytotoxicity": "inactive: -6.52%"}, {"smiles": "Cc1ccc(C)c(Nc2nnc(-c3ccc(C)c(S(=O)(=O)N4CCN(C)CC4)c3)c3ccccc23)c1", "Potency": "inconclusive: 25.1 µM [cytotoxic, single point]"}, {"smiles": "Cc1ccc(C2=CC(c3ccccc3C)n3c(nc4ccccc43)N2)cc1", "note": "(stereo unspecified)", "Potency": "inconclusive: 39.8 µM [cytotoxic, single point]"}, {"smiles": "O=C(CCS(=O)(=O)c1nc(-c2cccs2)cc(C(F)(F)F)n1)Nc1ccc(Br)cc1", "Potency": "inconclusive: 39.8 µM [cytotoxic, single point]"}, {"smiles": "Cc1cc2cc(CCNS(=O)(=O)c3ccc(Br)cc3)c(=O)[nH]c2cc1C", "Potency": "inconclusive: 14.1 µM [rising, partial curve]"}, {"smiles": "COc1ccc2c(c1)CCc1c(C(=O)Nc3cnn(Cc4ccc(Cl)cc4Cl)c3)noc1-2", "activity change, negative = cytotoxicity": "inactive: 3.75%"}, {"smiles": "CCOc1ccc(NC(=O)CCc2nc3cccnc3n2Cc2ccc(OC)cc2)cc1", "Potency": "inconclusive: 28.2 µM [cytotoxic, partial curve, poor fit]"}, {"smiles": "CC(C)CCOc1ccc(Cn2c(=O)sc3ccccc32)cc1", "activity change, negative = cytotoxicity": "inactive: -0.13%"}, {"smiles": "CCOc1ccccc1NC(=O)Nc1ccc2nc(N3CCN(C)CC3)cc(C)c2c1", "Potency": "inconclusive: 39.8 µM [cytotoxic, single point]"}, {"smiles": "CCN(CC)c1ccc(NC(=O)CN(C)S(=O)(=O)c2cccc3nsnc23)c(C)c1", "Potency": "inconclusive: 39.8 µM [cytotoxic, single point]"}, {"smiles": "CC(C)c1ccc(NC(=O)c2ccc3oc(=O)c(S(=O)(=O)c4ccc(F)cc4)cc3c2)cc1", "Potency": "inconclusive: 12.6 µM [cytotoxic, partial curve]"}, {"smiles": "Cc1cc(Br)cc(C)c1NC(=O)c1cnc2ccccn2c1=O", "Potency": "inconclusive: 31.6 µM [cytotoxic, single point]"}, {"smiles": "Cc1noc(C)c1S(=O)(=O)Nc1ccc(C(=O)Nc2ccc(C(C)C)cc2)cc1", "Potency": "inconclusive: 39.8 µM [cytotoxic, single point]"}, {"smiles": "CCOC(=O)c1ccc(NC(=O)CC2Nc3cccc4cccc(c34)NC2=O)cc1", "note": "(stereo unspecified)", "activity change, negative = cytotoxicity": "inactive: -1.52%"}, {"smiles": "CCOc1ccc(Nc2nc(N)c(C(=O)c3ccccc3Cl)s2)cc1", "Potency": "inconclusive: 39.8 µM [cytotoxic, single point]"}, {"smiles": "CCOc1ccccc1CNC(=O)C(CC)n1nc(C)c2c(C)n(-c3ccccc3)nc2c1=O", "note": "(stereo unspecified)", "Potency": "inconclusive: 39.8 µM [cytotoxic, single point]"}, {"smiles": "COc1cc2c(cc1OC)C(COc1ccc3c(C)cc(=O)oc3c1)N(C(=O)c1ccc(C)cc1)CC2", "note": "(stereo unspecified)", "Potency": "inconclusive: 25.1 µM [cytotoxic, single point]"}, {"smiles": "COc1ccc(C2c3c(n(C)c4ccccc34)C(=O)N2CC(=O)Nc2c(C)cc(C)cc2C)cc1", "note": "(stereo unspecified)", "Potency": "inconclusive: 39.8 µM [cytotoxic, partial curve, poor fit]"}, {"smiles": "Cc1nc2cc(-c3ccc(Cl)cc3)nn2c(C)c1CCC(=O)N1CCN(c2ccccc2)CC1", "Potency": "inconclusive: 0.0282 µM [cytotoxic, full curve, poor fit]"}, {"smiles": "Cc1ccc(-c2onc(C)c2C)cc1S(=O)(=O)N1CCC(C)CC1", "Potency": "inconclusive: 35.5 µM [cytotoxic, single point]"}]}]}
